# In PubChem BioAssay AID488969 (Vanderbilt High Throughput Screening Facility, 2010):
# In all, about 110,000 compounds were measured (“z-score”: median about -0.1, highest 2% from about 2 on). The list shows a part of the results. Activity calls are given as the source filed them.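 The calls were made as follows: active = z-score in the third read window above 3 or below -3; inactive = the rest.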
# Biological target: Metabotropic glutamate receptor 8 (Rattus norvegicus) (UniProt P70579)
# Assay: mGluR8 Gi/Go-coupled signaling modulation – cell-based, rat, thallium flux, HTS, primary screen (AID 488969)
# Settings: HEK293 rat mGluR8, GIRK (G protein-gated inwardly rectifying potassium channel) thallium flux, FluoZin2; at 10 µM; stronger effect = higher value; submaximal glutamate (EC20) added with thallium
# Chain of UniProt P70579 (P70579 whole entry, looked up): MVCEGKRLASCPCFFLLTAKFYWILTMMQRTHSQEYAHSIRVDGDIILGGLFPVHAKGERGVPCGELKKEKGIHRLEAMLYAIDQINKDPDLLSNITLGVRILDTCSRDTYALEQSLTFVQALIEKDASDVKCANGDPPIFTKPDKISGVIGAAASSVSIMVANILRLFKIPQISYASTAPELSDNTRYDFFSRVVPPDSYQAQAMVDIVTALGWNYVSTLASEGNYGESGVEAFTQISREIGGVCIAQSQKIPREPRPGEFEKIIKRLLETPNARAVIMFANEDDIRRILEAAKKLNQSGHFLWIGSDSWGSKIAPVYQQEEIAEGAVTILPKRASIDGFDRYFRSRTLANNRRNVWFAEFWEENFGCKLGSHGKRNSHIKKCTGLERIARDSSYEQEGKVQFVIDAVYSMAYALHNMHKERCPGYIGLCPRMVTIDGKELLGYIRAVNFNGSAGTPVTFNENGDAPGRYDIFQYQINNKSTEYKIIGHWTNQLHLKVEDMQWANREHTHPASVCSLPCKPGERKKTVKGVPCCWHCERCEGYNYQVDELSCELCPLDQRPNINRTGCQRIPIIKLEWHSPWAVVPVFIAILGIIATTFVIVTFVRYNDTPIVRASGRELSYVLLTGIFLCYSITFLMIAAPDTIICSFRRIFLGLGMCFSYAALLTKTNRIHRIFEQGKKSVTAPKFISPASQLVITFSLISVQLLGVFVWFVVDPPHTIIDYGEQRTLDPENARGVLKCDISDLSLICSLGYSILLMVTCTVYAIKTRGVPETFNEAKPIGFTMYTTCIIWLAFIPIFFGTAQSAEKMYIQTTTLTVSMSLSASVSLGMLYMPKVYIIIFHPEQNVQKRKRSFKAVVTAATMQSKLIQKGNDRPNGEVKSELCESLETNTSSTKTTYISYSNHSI
row,Compound,z-score
1,CC(=O)OCc1c(C(F)(F)F)nn(C)c1Oc1ccccc1,-0.0121
2,COc1nccnc1NS(=O)(=O)c1ccc(NS(=O)(=O)c2ccc(NC(C)=O)cc2)cc1,-0.0466
3,CC1Cc2cc(/C(O)=C3\C(=O)C(=O)N(CCN(C)C)C3c3ccccc3F)ccc2O1 (centres undefined),-0.489
4,COc1cc(C(=O)NCCc2nc3ccccc3n2C)cc(OC)c1OC,-0.686
5,CNC(=O)c1ccc2nc(NC(C)=O)sc2c1,active: 8.42
6,O=C(Oc1cccc2ccccc12)c1cc(Cl)nc2ccccc12,-0.201
7,O=C(N/N=C/c1c[nH]c2ccccc12)c1cc(-c2ccc(-c3ccccc3)cc2)n[nH]1,-0.293
8,COc1ccc(C(C#N)(CCC#N)CCC#N)cc1OC,-0.234
9,C/C(N)=C(/C#N)C(=O)COC(=O)CCC1CCCC1,-0.0734
10,CC1CCCCN1CCCn1c(=S)[nH]c2ccccc2c1=O (centres undefined),active: 3.46
11,Brc1ccc(-c2nc3ncccn3c2NC2CCCCC2)o1,-0.754
12,COc1ccc(CCN2C(=O)C3CC=C(C)CC3C2=O)cc1OC (centres undefined),0.0314
13,COc1ccc(-n2c(SC(CN3CCCCC3)CN3CCCC3=O)nc3ccccc3c2=O)cc1 (centres undefined),-0.446
14,CC(C)=NNC(=O)CN1C(=O)NC2NC(=O)NC21 (centres undefined),-0.0255
15,Cc1c(C(=O)N2CCC(C(N)=O)CC2)sc(N)c1C#N,1.16
16,CCOC(=O)CC1C(=O)NCCN1C(=S)Nc1ccccc1 (centres undefined),-0.192
17,Cn1ncc(Cl)c1C(=O)Nc1ccc(Cl)cn1,-0.172
18,O=C(CSCc1n[nH]c(=O)[nH]1)NCCOc1cccc(Oc2ccccc2)c1,-0.469
19,Cc1ccc(OC(=O)CCC(=O)N2CCc3ccccc32)cc1,0.112
20,CC(=O)c1c(N2CCOCC2)nc(=S)n(-c2cc(C)ccc2C)c1C,0.108
21,CC(Oc1ccc(Br)cc1)C(=O)N1CCc2ccccc21 (centres undefined),-1.56
22,CCn1c(=O)cc(OCC(=O)NCCCN2CC(C)CC(C)C2)c2ccccc21 (centres undefined),-0.193
23,Cc1cc(C(=O)OCC(=O)NC2CCCCC2)c(C)o1,-0.102

row,Compound,z-score
1,Cn1c(NC(=O)c2ccc(Cl)cc2)c(-c2ccccn2)c(=O)c2ccccc21,0.12
2,O=C(COC(=O)[C@H](Cc1ccccc1)N1C(=O)c2ccccc2C1=O)Nc1ccc2c(c1)OCO2,-0.487
3,CCCCOC1(c2ccccc2)NC(=S)NN=C1c1ccccc1 (centres undefined),0.993
4,O=C(Nc1c(C(=O)N2CCOCC2)cnn1-c1ccccc1)c1ccco1,-0.201
5,CCC(=O)N1N=C(c2c(-c3ccccc3)c3cc(Cl)ccc3[nH]c2=O)CC1c1ccco1 (centres undefined),-0.155
6,CCC1CCCCN1C(=O)COc1cc(=O)n(C)c2ccccc12 (centres undefined),0.0976
7,CCOc1cc(S(=O)(=O)NCc2ccc3c(c2)OCO3)ccc1F,0.365
8,O=C(O)CCC(=O)N1CCc2cc(S(=O)(=O)NCc3cccs3)ccc21,-0.144
9,CC(C)CC(=O)/C=C/n1c(=S)oc2ccccc21,-0.237
10,NS(=O)(=O)c1ccc(NC(=S)N2CCN(S(=O)(=O)c3ccc(F)cc3)CC2)cc1,0.195
11,COc1ccc(S(=O)(=O)N(CCc2ccccc2)CC(=O)O)cc1Cl,-0.104
12,O=C(CN1C(=O)NC2(CCCC2)C1=O)Nc1ccc(F)cc1,0.19
13,CCOc1ccc(NC(=O)/C(C#N)=C/c2ccc(N3CCCC3)c(C)c2)cc1,-0.0188
14,Cc1cc(C)cc(N(CC(=O)NCc2ccco2)C(=O)c2snc(C(N)=O)c2N)c1,-0.315
15,COc1ccc(OC(C)C(=O)Nc2ccccc2C(F)(F)F)cc1 (centres undefined),-0.114
16,Fc1ccc(N2CCN(/C=C/c3nnnn3-c3ccccc3)CC2)cc1,-0.208
17,O=C1CN(c2nnnn2-c2ccccc2)CCN1,-0.124
18,CCN(CC)C(=O)/C(=C\c1cccc([N+](=O)[O-])c1)NC(=O)c1ccco1,-0.281
19,Clc1ccc2[nH]cc(-c3nnnn3-c3ccccc3)c2c1,0.0708
20,COc1ccc(CCC(=O)Nc2nc3c(s2)CN(C)CC3)cc1OC,0.859
21,CCOC(=O)C1CCCN(C/C(O)=C(\C#N)c2nc(-c3ccc(Cl)cc3)cs2)C1 (centres undefined),0.509
22,COc1ccc(OC2C(=O)N(Cc3ccc(F)cc3)C2c2cc(OC)c(OC)c(OC)c2)cc1 (centres undefined),-0.147
23,COCCNC(=O)C(OC(=O)c1cc2oc(C)cc2n1C)C(C)C (centres undefined),0.0671

row,Compound,z-score
1,C=CCn1c(-c2ccccc2)c[nH]c1=S,0.229
2,CC(C)CN(/C=N/c1sc2c(c1C#N)CCCCC2)CC(C)C,2.9
3,Cc1nc(NC(=O)CSc2nnnn2C)sc1C,0.112
4,Nc1c(-c2cccc(Cl)c2)cnn1-c1cccc(C(F)(F)F)c1,-0.78
5,O=C(CSc1nnc(CNC(=O)c2c(F)cccc2Cl)o1)Nc1ccccc1,-0.312
6,CC(C)Cn1c(CNC(=O)c2ccccc2)nc2ccccc21,-0.201
7,C=CCNC(=O)CSc1nnc(-c2cccs2)o1,0.519
8,Cc1cccc(C)c1NC(=O)c1ccc(-c2ccc(Cl)cc2Cl)o1,0.494
9,CCCCn1c(SCC(=O)NCc2ccccc2)nc2ccc(N3CCOCC3)cc2c1=O,1.1
10,O=C(Nc1cc(C(F)(F)F)cc(C(F)(F)F)c1)c1ccc(Cn2cc(C(F)(F)F)ccc2=O)cc1,0.0447
11,CCN1C2=C(C(=O)CCC2)C(c2ccc(O)cc2)C2=C1CCCC2=O,0.473
12,CCOC(=O)c1c(NC(=O)c2c(-c3ccccc3)noc2C)sc(C)c1-c1ccccc1,-0.174
13,Cc1ccc(NC(=O)c2c(C(F)(F)F)nn(C)c2SCc2cccc(C(F)(F)F)c2)cc1C,-0.106
14,CCOC(=O)C(CC)Sc1nc(-c2ccc(OC)cc2)nc2c1c(=O)n(C)c(=O)n2C (centres undefined),0.0854
15,N#Cc1c2n(c(=O)[nH]c1=O)CCCCC2,-0.0381
16,CCCOc1ccc(NC(=O)C2CC(=O)N/C(=N/N=C(C)/C=C/c3ccc(N(C)C)cc3)S2)cc1 (centres undefined),0.602
17,COc1ccc(-c2csc3nc(-c4ccccc4F)oc(=O)c23)cc1OC,-0.361
18,COc1ccc(N2C(N)=NC(N)=NC2(C)C)cc1,0.15
19,Cc1ccc(NC(=O)C2c3ccccc3Oc3ccccc32)c(C)c1,-0.214
20,CC(c1cccnc1)N(C(=O)Nc1ccccc1)C1CCCCC1 (centres undefined),-0.238
21,CCc1ccc(NS(=O)(=O)c2ccc3[nH]cc(C(=O)N4CCCCC4)c(=O)c3c2)cc1,0.372
22,CCOn1c(=O)c(-c2ccc(Cl)cc2)[n+]([O-])c2ccccc21,0.119
23,Cc1ccc(C(=O)N/C(=C/C=C/c2ccccc2)C(=O)NCc2ccco2)cc1,-0.176
